{"source": "the supplement of paper PMC5919970", "test_system": "TYKNU", "experiment": "fractional viability relative to vehicle; TYKNU is a high-grade serous ovarian cancer line; higher = less growth inhibition", "settings": "72 h", "procedure,_shortened": "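Drug treatment lasted 72 h, with cells grown at 37 °C in 5% CO2 in RPMI 1640 supplemented with 10% FBS. Beforehand, TYKNU control cells or their lentiCRISPRv2 knockout derivatives had been seeded at 500 cells per well into drug-stamped 384-well plates carrying a ~2100-compound library at 2 or 10 μM, in duplicate. Viability came from Cell Titer Glo luminescence, with averaged duplicate treatment wells normalised to duplicate control wells in the same plate position.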", "key": {"[1]": {"settings": "2uM, genotype: DNM1L knockout (sgDNM1L #1)"}, "[2]": {"settings": "2uM, genotype: sgCTRLA1 (non-targeting control)"}, "[3]": {"settings": "10uM, genotype: DNM1L knockout (sgDNM1L #1)"}, "[4]": {"settings": "10uM, genotype: sgCTRLA1 (non-targeting control)"}}, "note": "Whole data set: some 2,000 compounds, median “fractional viability relative to vehicle” near 0.91, cut for the lowest 2% near 0.045. Some of the results follow."}
{"compound": "CC(C)OC(=O)C1=CN(C(=O)c2ccc(F)c(F)c2)CC(C)(C)c2c1[nH]c1ccccc21", "values": [{"measurement": "fractional viability", "setting": "[1]", "value": 0.991}, {"measurement": "fractional viability", "setting": "[2]", "value": 1.05}, {"measurement": "fractional viability", "setting": "[3]", "value": 0.865}, {"measurement": "fractional viability", "setting": "[4]", "value": 0.965}]}
{"compound": "O=C(/C=C\\n1cnc(-c2cc(C(F)(F)F)cc(C(F)(F)F)c2)n1)N1CC(F)(F)C1", "values": [{"measurement": "fractional viability", "setting": "[1]", "value": 0.0907}, {"measurement": "fractional viability", "setting": "[2]", "value": 0.125}, {"measurement": "fractional viability", "setting": "[3]", "value": 0.0786}, {"measurement": "fractional viability", "setting": "[4]", "value": 0.0883}]}
{"compound": "CC(C)(C)[N+]([O-])=Cc1ccc(S(=O)(=O)O)cc1S(=O)(=O)O", "values": [{"measurement": "fractional viability", "setting": "[1]", "value": 0.858}, {"measurement": "fractional viability", "setting": "[2]", "value": 1.09}, {"measurement": "fractional viability", "setting": "[3]", "value": 0.683}, {"measurement": "fractional viability", "setting": "[4]", "value": 0.989}]}
{"compound": "OCCN(CCO)c1nc(N2CCCCC2)c2nc(N(CCO)CCO)nc(N3CCCCC3)c2n1", "note": "[Dipyridamole]", "values": [{"measurement": "fractional viability", "setting": "[1]", "value": 0.84}, {"measurement": "fractional viability", "setting": "[2]", "value": 1.27}, {"measurement": "fractional viability", "setting": "[3]", "value": 0.779}, {"measurement": "fractional viability", "setting": "[4]", "value": 0.978}]}
{"compound": "Cc1ccc(NC(=O)c2cccc(C(C)(C)C#N)c2)cc1Nc1ccc2ncn(C)c(=O)c2c1", "values": [{"measurement": "fractional viability", "setting": "[1]", "value": 0.244}, {"measurement": "fractional viability", "setting": "[2]", "value": 0.283}, {"measurement": "fractional viability", "setting": "[3]", "value": 0.27}, {"measurement": "fractional viability", "setting": "[4]", "value": 0.31}]}
{"compound": "CC[C@H](CO)Nc1nc(NCc2ccccc2)c2ncn(C(C)C)c2n1", "note": "[Roscovitine (Seliciclib,CYC202)]", "values": [{"measurement": "fractional viability", "setting": "[1]", "value": 1.06}, {"measurement": "fractional viability", "setting": "[2]", "value": 1.15}, {"measurement": "fractional viability", "setting": "[3]", "value": 0.768}, {"measurement": "fractional viability", "setting": "[4]", "value": 1.01}]}
{"compound": "CC[C@@H](C)Nc1cc(C(=O)N[C@H]2C[C@H]3CC[C@@H](C2)N3c2ccc(C(=O)C3CC3)cn2)c(C)cc1C(N)=O", "values": [{"measurement": "fractional viability", "setting": "[1]", "value": 0.244}, {"measurement": "fractional viability", "setting": "[2]", "value": 0.208}, {"measurement": "fractional viability", "setting": "[3]", "value": 0.231}, {"measurement": "fractional viability", "setting": "[4]", "value": 0.221}]}
{"compound": "CC(C)(CO)C(O)C(=O)NCCC(=O)O", "note": "[Calcium D-Panthotenate]", "values": [{"measurement": "fractional viability", "setting": "[1]", "value": 0.892}, {"measurement": "fractional viability", "setting": "[2]", "value": 1.03}, {"measurement": "fractional viability", "setting": "[3]", "value": 0.583}, {"measurement": "fractional viability", "setting": "[4]", "value": 0.892}]}
{"compound": "Cc1c(-c2cnccn2)ssc1=S", "note": "[Oltipraz]", "values": [{"measurement": "fractional viability", "setting": "[1]", "value": 0.804}, {"measurement": "fractional viability", "setting": "[2]", "value": 0.973}, {"measurement": "fractional viability", "setting": "[3]", "value": 0.806}, {"measurement": "fractional viability", "setting": "[4]", "value": 0.762}]}
{"compound": "Cc1cccc(CC(=O)N2CCc3c2ccc(-c2cn(C)c4ncnc(N)c24)c3F)n1", "values": [{"measurement": "fractional viability", "setting": "[1]", "value": 0.959}, {"measurement": "fractional viability", "setting": "[2]", "value": 0.983}, {"measurement": "fractional viability", "setting": "[3]", "value": 0.848}, {"measurement": "fractional viability", "setting": "[4]", "value": 0.955}]}
{"compound": "COc1ccc(-n2c(SCCCN3C(=O)c4cccc5cccc(c45)C3=O)nnc2-c2ccncc2)cc1", "values": [{"measurement": "fractional viability", "setting": "[1]", "value": 0.722}, {"measurement": "fractional viability", "setting": "[2]", "value": 0.945}, {"measurement": "fractional viability", "setting": "[3]", "value": 0.895}, {"measurement": "fractional viability", "setting": "[4]", "value": 0.738}]}
